We go through 56 variants from the RNAGym collection of RNA variant scans (doi:10.7554/elife.90254).

The source gives no read counts; variants with many changes may rest on few reads.

B1: LINE1-mini (parent)
chain: GGCAGAGCUCAACACAGCGUGGCAAAGUGGCUGUGGCUAGACUGCC

The variants in this data set derive from B1. Put plainly: self-cleavage, relative activity (ratio to wild type); higher = more cleavage; in vitro, sequencing; the parent is a self-cleaving ribozyme.
On to GGUAUAGCUCAACACAGCGGGGCAGAGUGCCUCUGGCUAGACUGCC [C3U G5U U20G A25G G30C G33C], for which the self-cleavage amounted to 0.04. Turning to GCAAGAGCUCAACAUAGCGUGGCAAAGUGGCUGUGGCUAGACUGCC [G2C C3A C15U], the self-cleavage is 0.09. For GGCAGAGCUCAACUCAGCGUGGCAAUGUGGCUGUGGAUAGACUGCC [A14U A26U C37A] the value was 0.13. With GGCAGAGCUCAACACAGCGUUGUAAAGUGGCUGUGACUAGCCUGCC [G21U C23U G36A A41C], the self-cleavage was 0.11. For CGCAGAGCUCCACACGGCGUGGCAAAGUGGCUGUGGCUAGACUGCU [G1C A11C A16G C46U] the value was 0.02; for GGUAGAGGUCAAUACAGUGUGGCAAAAUGGCUAUGGCUAGACUGCC [C3U C8G C13U C18U G27A G33A], 0.19; for GGCAUAGCUAAACACAGCGUGUCAAAGCGGCUGUGGCUAGACUGCC [G5U C10A G22U U28C], 0.02. As to GGCAGAGCUCAACACACCGUGGCAAAGUGGCUUGGGCUAGACUGCC [G17C G33U U34G], the self-cleavage stood at 0.02. With GACAGAGCUCAACACAGCGUGGGUAAGUGGCUGUGACUAGACUGCC [G2A C23G A24U G36A], the self-cleavage was 0.89. With GGCAGUGCUCAACACAGCGUGACAAAGUGGCUGUGGCUAGCCUGCC [A6U G22A A41C], the self-cleavage was found to be 0.03. Take GGCAGAGCUUAACUCAGCGUGCCAAAGUGGCGGUGGCUAAACUGCC [C10U A14U G22C U32G G40A]: the self-cleavage was determined as 0.02.

Regarding CUCAGAGAUCAACACAGCGUGGCAAAUUGGCUGUGCCUAGACUGCC [G1C G2U C8A G27U G36C], the self-cleavage was 0.15. Turning to GGCAGAGCUCAACACGGCAUGGCAAAGUGGCUGUGGCUAAACUGAC [A16G G19A G40A C45A], the self-cleavage turned out to be 0.03. Turning to GGCAAAGCUCAACACGGCGUGGUAAAAUGGCUGUGGCUAGACUGCC [G5A A16G C23U G27A], the self-cleavage is 0.08. Take GGUAGAGCUCAUCACAGCGUGGGAAAGUGGCUGUGGUUAGACUACC [C3U A12U C23G C37U G44A]: the self-cleavage worked out at 0.

Take GGCAGAGCUCAACACAGCAUGACAAAGUGGCUGUGGCUAGAUUGGC [G19A G22A C42U C45G]: the self-cleavage was 0.46. For the variant AGCAGAGCUCAACACAGCGUGGAAAAGUGUCUGUAGCGAGACUGCC [G1A C23A G30U G35A U38G], the self-cleavage was found to be 0.03.

In the case of GGGAGAGCUCAACACAGCGUGGCAAAGUGGCUGUUGCGAGACUGCC [C3G G35U U38G], the self-cleavage is 0.36. For the variant GGCAGAGCUCAACACAGCGAACCAAAGUGGCUGUGGCUAGACUGCC [U20A G21A G22C], the self-cleavage came to 0.42.

Turning to GGCAGAGCUGAACACAGCGUGGCAAAGAGGCUGUGGCUAGAUUGCC [C10G U28A C42U], the self-cleavage stood at 0.01. For GGGAGAGCUCAACACAGCGUGGCAAAGUGGUUGUGGCUAGACUUCC [C3G C31U G44U] the value was 0.09; for GGCAGAGCUCAACACAGCGUUGCAAAGUGGCUGUGACUUGACUGCC [G21U G36A A39U], 0.2.

GGCAGAGCUCGACACAGCGUGGCAAAGUAGCAGUGGCUAGACUGCC [A11G G29A U32A]: the self-cleavage was determined as 0.02. Turning to GGCAGAGCGCAACGCAGCGUGGCAAAGUGGCGGUUGCUAGACUGCC [U9G A14G U32G G35U], the self-cleavage turned out to be 0.08. Take GGCAGAGCUUAACAGAGCGAGGCAAAGUGGCUGUGGCUAGACUGCC [C10U C15G U20A]: the self-cleavage amounted to 0.02. In the case of GGCAGAGCACAACGUAGCGUGGCAAAGUGGCUGUGGCUAGACUGCC [U9A A14G C15U], the self-cleavage was found to be 0.29. In the case of GGCAAAGCUGAACACAGCGUGGCAAAGUGGCUGUGACUAGACAGCC [G5A C10G G36A U43A], the self-cleavage came to 0.01. Take GGCAGAGCUCCACACAGCUAGGCAAAGUGGCUGUGGCUAGACUGCC [A11C G19U U20A]: the self-cleavage came out at 0.03. GGCAGAGCUCAAAGCAGCGUGGCAAAGUCGCUGUGGCUCGACUGCC [C13A A14G G29C A39C]: the self-cleavage is 0.03. For GGCAGAGCACAACAGAGCGAGGCAAAGUGGCUGUGGCUAGACUGCC [U9A C15G U20A], the self-cleavage stood at 0.11. For GGCAGAGCUCAACACAUCGUGGCAAAGUGCCUGUGGCUAGAGUGCC [G17U G30C C42G] the value was 0.07. For GGGAGAGCUCACCACAGCGUGGCAAAGUGGCUGUGGAUGGACUCCC [C3G A12C C37A A39G G44C], the self-cleavage worked out at 0.01. As for GCCAGAGCACAACACAGCGUAGCAAAGAGGAUGUGGCUAGACUGCC [G2C U9A G21A U28A C31A], the self-cleavage came to 0.47. Consider GGCAGAGCUCAUCACAGCGUGGCUAAGAGGCUGUUUCUAGACUGCC [A12U A24U U28A G35U G36U], for which the self-cleavage came out at 0.18. In the case of GGCCGAGCUCGACACAGCGUGGCAAAGGGGCUUUGGCUAGACUUAC [A4C A11G U28G G33U G44U C45A], the self-cleavage amounted to 0. CGCAGAGCUCCACACAGCGUGGCAAAGUGGCUGUGGGUAGACUGCC [G1C A11C C37G]: the self-cleavage amounted to 0.01.

With GGCAGAGCUCAACACCGCGUGGCAAAGUGGCUGUGACUUGACUGCC [A16C G36A A39U], the self-cleavage amounted to 0.08. On to GGCAGAGCUCAACACCGCGUGGCAAAGUGGCUGUGGCAACACUGCC [A16C U38A G40C], for which the self-cleavage is 0.01. GGAAGACCUCUACACAGCGUGGCAAAGUGGCUGUGGCUAGACUGCC [C3A G7C A11U]: the self-cleavage worked out at 0.02. Next, GGCAGGACUCAACACAUCGUGGCAAAGUGGCUGUGGCUAGACUGCC [A6G G7A G17U]: 0.14; GGCAGAGCUCAACACAGCGUGGCAAAGCGGGUGGGGCUAGACUGAC [U28C C31G U34G C45A]: 0.04. GGCAGAGCUCAACACAGCGUGGCAAAGUGGCCGUGGCUAGACUACG [U32C G44A C46G]: the self-cleavage is 0.03.

AGCAGAGCUCAACGCAGAGUGGCAUAGUGGCUGUGGCCAGACGGCC [G1A A14G C18A A25U U38C U43G]: the self-cleavage was 0.02. As for GACAGAGCUUAACACAGCGUGGCAAAGUGGCUGUGGAUUGACUGCC [G2A C10U C37A A39U], the self-cleavage came to 0.08.

Take GGCAGAGUUCAACACAGCGAGGCAAAGUGGCUGUGGCUAAACUGCC [C8U U20A G40A]: the self-cleavage worked out at 0.12. For AGCAGAGCUCAACACAGCCUGGCAAAGUGGCUGUGGCUAUACUGCC [G1A G19C G40U], the self-cleavage turned out to be 0.03. As to GGCAGAGCUCAACACAGCGUGGCAACCUGGUUGUGGCUAGCUUGCC [A26C G27C C31U A41C C42U], the self-cleavage is 0.05. Take GGCAGAGCUAAACGCAGCGUGGCAAAGUGGCUGUGGGUAGACUGCC [C10A A14G C37G]: the self-cleavage worked out at 0. Turning to GGCAGAGCUCAACACAGCGUGGCGAACUGGCUGUGGCUAGACUCCC [A24G G27C G44C], the self-cleavage was found to be 0.34.

For GGCAGAGCUCAACACAGCGUUGUAAAAUGGCUGUGGCCAGAAUGCC [G21U C23U G27A U38C C42A], the self-cleavage was determined as 0.09. Turning to AGCAGAGCUCAACACAGCGUGGCAAAGUUGGGGUGGCUAGACUGCC [G1A G29U C31G U32G], the self-cleavage is 0.06. Next, GGCAGAGCUCAAAACAGCGUGGCAAAGUGGCUCUCGCUAGACUGAC [C13A G33C G35C C45A]: 0.02; GGCGGAGCUCAACACAGCGUGGCAAAGUGGCUUUGGCUAGAGUGCC [A4G G33U C42G]: 0.03.

Consider GGCAGAGCUGAACACAGCGUAGCAAAGUGGCUGUGGAUAGACUCCC [C10G G21A C37A G44C], for which the self-cleavage is 0. For GGCAGAGCUCAACACAGCAGGGCAAAGUGGCUGCGGCUAGACUGCC [G19A U20G U34C] the value was 0.06. With GGAAGAGCUCAACACAGCGUGGCAAAGUGGCUCUGGCUAGACUACC [C3A G33C G44A], the self-cleavage came out at 0.07.
